From the GPR68 mutational scans of Howard et al. (2025) come the findings set out here.

The labels stand for the following.
B1: GPR68, Q15743 (parent)
chain: MGNITADNSSMSCTIDHTIHQTLAPVVYVTVLVVGFPANCLSLYFGYLQIKARNELGVYLCNLTVADLFYICSLPFWLQYVLQHDNWSHGDLSCQVCGILLYENIYISVGFLCCISVDRYLAVAHPFRFHQFRTLKAAVGVSVVIWAKELLTSIYFLMHEEVIEDENQHRVCFEHYPIQAWQRAINYYRFLVGFLFPICLLLASYQGILRAVRRSHGTQKSRKDQIQRLVLSTVVIFLACFLPYHVLLLVRSVWEASCDFAKGVFNAYHFSLLLTSFNCVADPVLYCFVSETTHRDLARLRGACLAFLTCSRTGRAREAYPLGAPEASGKSGAQGEEPELLTKLHPAFQTPNSPGSGGFPTGRLA

Data set [1] covers variants of B1. Kind of data set: cAMP reporter score (Enrich2 score, wild type = 0); higher = more signal; HEK293T, FACS bins.
In data set [2] the parent is B1. Kind of data set: surface expression score (Enrich2 score, wild type = 0); higher = more signal; HEK293T, FACS bins.

Scores whose standard error is large were omitted. Not listed are two conditions whose scores span a narrow range. In variant names, del marks residues removed and ins residues inserted between the two positions. For some assays here: The data file names ogerin without a concentration.

Take P126E: the cAMP reporter score is -1.05 in data set [1] (pH 5.5); -1.6 in data set [1] (pH 6); -1.25 in data set [1] (pH 6, modulator: ogerin); -1.06 in data set [1] (pH 6.5, modulator: ogerin). Further, in data set [2], the surface expression score was -0.084.
Consider P126S, for which the cAMP reporter score in data set [1] (pH 5.5) is -0.851; in data set [1] (pH 6) it was -1.06; in data set [1] (pH 6, modulator: ogerin) it was -1.55; in data set [1] (pH 6.5, modulator: ogerin), -1.68. In addition, the surface expression score in data set [2] is -1.43.
As to P126K, the cAMP reporter score in data set [1] (pH 5.5) is -1.31; in data set [1] (pH 6), -1.55; in data set [1] (pH 6, modulator: ogerin), -1.72; in data set [1] (pH 6.5, modulator: ogerin) it was -1.14. The surface expression score in data set [2] is -1.54.
In the case of P126Q, the cAMP reporter score was -1.46 in data set [1] (pH 5.5); -2.86 in data set [1] (pH 6); -1.53 in data set [1] (pH 6, modulator: ogerin); -2.39 in data set [1] (pH 6.5, modulator: ogerin). The surface expression score in data set [2] was -1.65.
On to P126R, for which the cAMP reporter score was -1.13 in data set [1] (pH 5.5); -0.942 in data set [1] (pH 6); -1.31 in data set [1] (pH 6.5, modulator: ogerin). For the same variant, the surface expression score in data set [2] is -0.865.
As to P126D, the cAMP reporter score is -0.685 in data set [1] (pH 5.5); -0.363 in data set [1] (pH 6); -1.45 in data set [1] (pH 6, modulator: ogerin); -1.02 in data set [1] (pH 6.5, modulator: ogerin). In data set [2], the surface expression score was -2.37.
P126N: the cAMP reporter score is -0.57 in data set [1] (pH 5.5); -0.793 in data set [1] (pH 6, modulator: ogerin); -1.22 in data set [1] (pH 6.5, modulator: ogerin). Also, the surface expression score in data set [2] was -2.47.
On the same counts, the results for P126M are -2.17, -1.34, -2.33 and -2.43.
Regarding P126C, the cAMP reporter score in data set [1] (pH 5.5) was -0.079; in data set [1] (pH 6) it was 1.34; in data set [1] (pH 6, modulator: ogerin), -0.776; in data set [1] (pH 6.5, modulator: ogerin), -0.433.
As for P126H, the cAMP reporter score in data set [1] (pH 5.5) is -0.805; in data set [1] (pH 6), -0.86; in data set [1] (pH 6, modulator: ogerin), -1.31; in data set [1] (pH 6.5, modulator: ogerin) it was -1.55. For the same variant, the surface expression score in data set [2] is -2.06.
For P126T, the cAMP reporter score in data set [1] (pH 5.5) was -0.867; in data set [1] (pH 6), -0.803; in data set [1] (pH 6, modulator: ogerin) it was -0.643; in data set [1] (pH 6.5, modulator: ogerin), -0.506.
On to P126L, for which the cAMP reporter score in data set [1] (pH 5.5) is -2.51; in data set [1] (pH 6, modulator: ogerin) it was -3.09; in data set [1] (pH 6.5, modulator: ogerin), -2.15. Besides, in data set [2], the surface expression score is -2.1.
As for T134_L135del, the cAMP reporter score in data set [1] (pH 5.5) was -0.282; in data set [1] (pH 6), 0.473; in data set [1] (pH 6, modulator: ogerin), -0.385; in data set [1] (pH 6.5, modulator: ogerin), -0.463. Also, the surface expression score in data set [2] is -2.08.
On the same counts, the results for R133_T134insGS are -1.72, -1.15, -1.83, -0.331 and -2.45.
Consider D118del, for which the cAMP reporter score in data set [1] (pH 5.5) was -1.77; in data set [1] (pH 6), -1.98; in data set [1] (pH 6.5, modulator: ogerin) it was -1.6. Further, the surface expression score in data set [2] was -2.35.
Regarding R133del, the cAMP reporter score was -1.45 in data set [1] (pH 5.5); -1.32 in data set [1] (pH 6); -2.3 in data set [1] (pH 6, modulator: ogerin); -0.865 in data set [1] (pH 6.5, modulator: ogerin). The surface expression score in data set [2] is -2.49.
On the same counts, the results for R133_L135del are -1.38, -0.615, -1.22, -1.31 and -2.53.
Consider H130_Q131insG, for which the cAMP reporter score in data set [1] (pH 5.5) is -1.57; in data set [1] (pH 6, modulator: ogerin), -1.06; in data set [1] (pH 6.5, modulator: ogerin), -0.78. Further, the surface expression score in data set [2] was -1.41.
Regarding F127_R128insGS, the cAMP reporter score in data set [1] (pH 5.5) is -1.42; in data set [1] (pH 6) it was -1.73; in data set [1] (pH 6, modulator: ogerin), -1.66; in data set [1] (pH 6.5, modulator: ogerin), -1.51. The surface expression score in data set [2] is -2.56.
On the same counts, the results for T134_L135insGSG are -0.93, -1.47, -1.72, -0.75 and -2.75.
On to H125_F127del, for which the cAMP reporter score is -1.14 in data set [1] (pH 5.5); 0.349 in data set [1] (pH 6); -2.1 in data set [1] (pH 6, modulator: ogerin); -1.55 in data set [1] (pH 6.5, modulator: ogerin). For the same variant, the surface expression score in data set [2] is -2.35.
For K136_A138del, in that order: -0.771, -0.841, -0.703, -1.09 and -1.93.
As for S116N, the cAMP reporter score is -0.928 in data set [1] (pH 5.5); -1.6 in data set [1] (pH 6); -0.339 in data set [1] (pH 6, modulator: ogerin).
Consider S116T, for which the cAMP reporter score was -1.7 in data set [1] (pH 5.5); -0.684 in data set [1] (pH 6, modulator: ogerin); -0.802 in data set [1] (pH 6.5, modulator: ogerin). Besides, the surface expression score in data set [2] is -0.196.
As for S116R, the cAMP reporter score was -0.401 in data set [1] (pH 5.5); -0.062 in data set [1] (pH 6); -3.22 in data set [1] (pH 6, modulator: ogerin).
With S116P, the cAMP reporter score is -0.86 in data set [1] (pH 5.5) and -0.201 in data set [1] (pH 6). Besides, the surface expression score in data set [2] is -2.6.
Turning to S116Y, the cAMP reporter score is -0.9 in data set [1] (pH 5.5); -1.1 in data set [1] (pH 6); -0.458 in data set [1] (pH 6, modulator: ogerin); -0.219 in data set [1] (pH 6.5, modulator: ogerin). Also, the surface expression score in data set [2] was -2.62.
On the same counts, the results for S116L are 0.17, -0.834, -1.6, -0.066 and -1.06.
On the same counts, the results for S116V are -1.08, -1.38, -1.23, -0.528 and 1.51.
On the same counts, the results for S116Q are -0.321, -0.896, -0.696, -0.805 and -1.27.
In the case of S116W, the cAMP reporter score was -0.799 in data set [1] (pH 5.5); -0.013 in data set [1] (pH 6); -1.42 in data set [1] (pH 6, modulator: ogerin); -0.611 in data set [1] (pH 6.5, modulator: ogerin). In data set [2], the surface expression score was -1.77.
For S116M, the cAMP reporter score in data set [1] (pH 5.5) is -2.83; in data set [1] (pH 6), -0.496; in data set [1] (pH 6, modulator: ogerin) it was -1.67; in data set [1] (pH 6.5, modulator: ogerin) it was -0.441.
Take K136_A137del: the cAMP reporter score in data set [1] (pH 5.5) is -1.42; in data set [1] (pH 6) it was -1.52; in data set [1] (pH 6, modulator: ogerin), -1.44; in data set [1] (pH 6.5, modulator: ogerin), -1.49. In addition, in data set [2], the surface expression score is -2.39.
